# This is one part of the list.
# B1: Nc3LysM (protein)
# chain: QFTVPPDTTAEPNTIKTCTWWHVAGSGDSCTSIASTYGITSEQFARWDMETTDSPKNPSVATACKLTVGNSYCIENNFGQDDPPTPSISSSTLIGTATTSTTASTTTGNGISTPTPIQEGMETATTTTSSGNGITTPTPTQAGMETVGNCDRFHLVKSGDQCGTIASTYGITLANFYSWNPAVGTSCQSLWLDTYVCVRTIGFVPPKTTTTTTKKPTSTTSAGGVATPTPTQPGMETVSGCKKFHKGRGNVSTVASGDQCGTIATRYGISLANFYSWNPAVGSSCQTLWLDYYVCVGR
# Assays:
# Assay in all cases: glycan array binding signal (z-score within array); higher = stronger binding
# Conditions in all cases: glycan notation: IUPAC condensed, linker removed
# [1] = molecular target: Gal(a1-3)Gal(b1-4)GlcNAc(b1-2)Man
# In short: (§1)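 The binding signal is a Z-score computed within each array and averaged over linkers. Arrays of the same protein sequence at different concentrations or buffers were also averaged together. Data originate from 3228 arrays in the Consortium for Functional Glycomics database, kept only where the protein sequence was available.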
# [2] = molecular target: Gal(a1-3)Gal(b1-4)GlcNAc(b1-2)Man(a1-3)[Gal(a1-3)Gal(b1-4)GlcNAc(b1-2)Man(a1-6)]Man(b1-4)GlcNAc(b1-4)GlcNAc
# In short: as §1
# [3] = molecular target: Gal(a1-3)Gal(b1-4)GlcNAc(b1-3)GalNAc
# In short: as §1
# [4] = molecular target: Gal(a1-3)Gal(b1-4)GlcNAc(b1-6)GalNAc
# In short: as §1
# [5] = molecular target: Gal(a1-3)Gal(b1-4)[Fuc(a1-3)]GlcNAc
# In short: as §1
# [6] = molecular target: Gal(a1-3)Gal(b1-4)[Fuc(a1-3)]GlcNAc(b1-2)Man(a1-3)[Gal(a1-3)Gal(b1-4)[Fuc(a1-3)]GlcNAc(b1-2)Man(a1-6)]Man(b1-4)GlcNAc(b1-4)GlcNAc
# In short: as §1
# Gal(a1-3)GalNAc = molecular target: Gal(a1-3)GalNAc
# In short: as §1
# [7] = molecular target: Gal(a1-3)[Gal(a1-4)]Gal(b1-4)GlcNAc
# In short: as §1
# [8] = molecular target: Gal(a1-4)Gal(b1-3)GlcNAc(b1-2)Man(a1-3)[Gal(a1-4)Gal(b1-3)GlcNAc(b1-2)Man(a1-6)]Man(b1-4)GlcNAc(b1-4)GlcNAc
# In short: as §1
# Gal(a1-4)Gal(b1-4)Glc = molecular target: Gal(a1-4)Gal(b1-4)Glc
# In short: as §1
# Gal(a1-4)Gal(b1-4)GlcNAc = molecular target: Gal(a1-4)Gal(b1-4)GlcNAc
# In short: as §1
# [9] = molecular target: Gal(a1-4)Gal(b1-4)GlcNAc(b1-2)Man(a1-3)[Gal(a1-4)Gal(b1-4)GlcNAc(b1-2)Man(a1-6)]Man(b1-4)GlcNAc(b1-4)GlcNAc
# In short: as §1
# [10] = molecular target: Gal(a1-4)Gal(b1-4)GlcNAc(b1-3)Gal(b1-4)Glc
# In short: as §1
# Gal(a1-4)GlcNAc = molecular target: Gal(a1-4)GlcNAc
# In short: as §1
# Gal(a1-6)Glc = molecular target: Gal(a1-6)Glc
# In short: as §1
# Gal(b1-2)Gal = molecular target: Gal(b1-2)Gal
# In short: as §1
# Gal(b1-3)Gal = molecular target: Gal(b1-3)Gal
# In short: as §1
# Gal(b1-3)Gal(b1-4)GlcNAc = molecular target: Gal(b1-3)Gal(b1-4)GlcNAc
# In short: as §1
# Gal(b1-3)GalNAc = molecular target: Gal(b1-3)GalNAc
# In short: as §1
# [11] = molecular target: Gal(b1-3)GalNAc(a1-3)[Fuc(a1-2)]Gal(b1-4)Glc
# In short: as §1
# [12] = molecular target: Gal(b1-3)GalNAc(a1-3)[Fuc(a1-2)]Gal(b1-4)GlcNAc
# In short: as §1
# Gal(b1-3)GalNAc(b1-3)Gal = molecular target: Gal(b1-3)GalNAc(b1-3)Gal
# In short: as §1
# [13] = molecular target: Gal(b1-3)GalNAc(b1-3)Gal(a1-4)Gal(b1-4)Glc
# In short: as §1
# [14] = molecular target: Gal(b1-3)GalNAc(b1-4)Gal(b1-4)Glc
# In short: as §1
# [15] = molecular target: Gal(b1-3)GalNAc(b1-4)[Neu5Ac(a2-3)]Gal(b1-4)Glc
# In short: as §1
# Gal(b1-3)GlcNAc = molecular target: Gal(b1-3)GlcNAc
# In short: as §1
# [16] = molecular target: Gal(b1-3)GlcNAc(a1-3)Gal(b1-4)GlcNAc
# In short: as §1
# [17] = molecular target: Gal(b1-3)GlcNAc(a1-6)Gal(b1-4)GlcNAc
# In short: as §1
# Gal(b1-3)GlcNAc(b1-2)Man = molecular target: Gal(b1-3)GlcNAc(b1-2)Man
# In short: as §1
# [18] = molecular target: Gal(b1-3)GlcNAc(b1-2)Man(a1-3)[Gal(b1-3)GlcNAc(b1-2)Man(a1-6)]Man(b1-4)GlcNAc(b1-4)GlcNAc
# In short: as §1
# [19] = molecular target: Gal(b1-3)GlcNAc(b1-2)Man(a1-3)[Gal(b1-3)GlcNAc(b1-2)Man(a1-6)]Man(b1-4)GlcNAc(b1-4)[Fuc(a1-6)]GlcNAc
# In short: as §1
# [20] = molecular target: Gal(b1-3)GlcNAc(b1-2)Man(a1-3)[GlcNAc(b1-4)][Gal(b1-3)GlcNAc(b1-2)Man(a1-6)]Man(b1-4)GlcNAc(b1-4)GlcNAc
# In short: as §1
# [21] = molecular target: Gal(b1-3)GlcNAc(b1-2)[Gal(b1-3)GlcNAc(b1-6)]Man(a1-6)[Gal(b1-3)GlcNAc(b1-2)Man(a1-3)]Man(b1-4)GlcNAc(b1-4)GlcNAc
# In short: as §1
# [22] = molecular target: Gal(b1-3)GlcNAc(b1-3)Gal(b1-3)GlcNAc
# In short: as §1
# [23] = molecular target: Gal(b1-3)GlcNAc(b1-3)Gal(b1-4)Glc
# In short: as §1
# [24] = molecular target: Gal(b1-3)GlcNAc(b1-3)Gal(b1-4)GlcNAc
# In short: as §1
# [25] = molecular target: Gal(b1-3)GlcNAc(b1-3)Gal(b1-4)GlcNAc(b1-2)Man(a1-3)[Gal(b1-3)GlcNAc(b1-3)Gal(b1-4)GlcNAc(b1-2)Man(a1-6)]Man(b1-4)GlcNAc(b1-4)GlcNAc
# In short: as §1
binder,measurement,setting,value
B1,glycan array binding signal (z-score),[1],-0.207
same,glycan array binding signal (z-score),[2],-0.179
same,glycan array binding signal (z-score),[3],0.188
same,glycan array binding signal (z-score),[4],-0.131
same,glycan array binding signal (z-score),[5],-0.186
same,glycan array binding signal (z-score),[6],0.012
same,glycan array binding signal (z-score),Gal(a1-3)GalNAc,-0.107
same,glycan array binding signal (z-score),[7],0.014
same,glycan array binding signal (z-score),[8],-0.078
same,glycan array binding signal (z-score),Gal(a1-4)Gal(b1-4)Glc,0.092
same,glycan array binding signal (z-score),Gal(a1-4)Gal(b1-4)GlcNAc,0.007
same,glycan array binding signal (z-score),[9],0.082
same,glycan array binding signal (z-score),[10],-0.212
same,glycan array binding signal (z-score),Gal(a1-4)GlcNAc,-0.057
same,glycan array binding signal (z-score),Gal(a1-6)Glc,-0.157
same,glycan array binding signal (z-score),Gal(b1-2)Gal,-0.015
same,glycan array binding signal (z-score),Gal(b1-3)Gal,0.075
same,glycan array binding signal (z-score),Gal(b1-3)Gal(b1-4)GlcNAc,-0.051
same,glycan array binding signal (z-score),Gal(b1-3)GalNAc,-0.04
same,glycan array binding signal (z-score),[11],0.003
same,glycan array binding signal (z-score),[12],-0.057
same,glycan array binding signal (z-score),Gal(b1-3)GalNAc(b1-3)Gal,-0.026
same,glycan array binding signal (z-score),[13],-0.214
same,glycan array binding signal (z-score),[14],-0.079
same,glycan array binding signal (z-score),[15],-0.212
same,glycan array binding signal (z-score),Gal(b1-3)GlcNAc,-0.035
same,glycan array binding signal (z-score),[16],-0.15
same,glycan array binding signal (z-score),[17],-0.041
same,glycan array binding signal (z-score),Gal(b1-3)GlcNAc(b1-2)Man,-0.189
same,glycan array binding signal (z-score),[18],0.063
same,glycan array binding signal (z-score),[19],-0.069
same,glycan array binding signal (z-score),[20],0.083
same,glycan array binding signal (z-score),[21],-0.2
same,glycan array binding signal (z-score),[22],-0.167
same,glycan array binding signal (z-score),[23],-0.145
same,glycan array binding signal (z-score),[24],-0.043
same,glycan array binding signal (z-score),[25],-0.15

# From the supplement of paper PMC8728848
